Experimental data published in the supplement of paper PMC6206098.
± gives the uncertainty stated by the source. Shown are siRNA guide strands that differ only in the seed, positions 2 to 7.

What was measured:
HeyA8 = experiment: cell viability relative to lipid-only control; higher = less toxic; conditions: concentration: 10 nM; 96 h; Homo sapiens
H460 = experiment: as above; conditions: concentration: 10 nM; 96 h; Homo sapiens
M565 = experiment: as above; conditions: concentration: 10 nM; 96 h; Mus musculus
3LL = experiment: cell viability relative to siNT1 control; HeyA8 human ovarian and H460 human lung cancer; M565 mouse liver and 3LL mouse lung cancer; siNT1 is a non-toxic control siRNA; higher = less toxic; conditions: concentration: 10 nM; 96 h; Mus musculus
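Wherever cell viability relative to lipid-only control is given: reverse lipid transfection in 384-well plates, in triplicate, of duplexes on a non-toxic 19mer backbone with passenger strand 2′-O-methylated at positions 1 and 2, luminescence viability read-out.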
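Wherever cell viability relative to siNT1 control is given: Luminescence-based viability of cells reverse transfected in 384-well plates with lipid-complexed siRNAs built on a non-toxic 19mer backbone whose passenger strand carries 2′-O-methyl groups at positions 1 and 2, triplicates.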

Sequence	cell viability (HeyA8) [%]	cell viability (H460) [%]	cell viability (M565) [%]	cell viability (3LL) [%]
UUCGAAUACAUGUAAACCAAA	99.5 ± 13	73.1 ± 4.7	73 ± 8.8	103 ± 29
UUCGACAACAUGUAAACCAAA	91.9 ± 11	63.1 ± 8	99.6 ± 16	106 ± 9.3
UUCGACCACAUGUAAACCAAA	55.4 ± 1.8	54.6 ± 7	40.4 ± 4.9	65.1 ± 13
UUCGACGACAUGUAAACCAAA	99.5 ± 14	66.2 ± 7.2	76 ± 11	105 ± 21
UUCGACUACAUGUAAACCAAA	83.7 ± 14	61.8 ± 1.1	85 ± 4.6	90.1 ± 13
UUCGAGAACAUGUAAACCAAA	79.3 ± 4.9	75.9 ± 6.2	89.6 ± 11	97 ± 19
UUCGAGCACAUGUAAACCAAA	14.6 ± 0.48	39.6 ± 4	64.6 ± 6.4	66.7 ± 17
UUCGAGGACAUGUAAACCAAA	63.3 ± 6.2	62.9 ± 5.6	80.9 ± 12	60.1 ± 9.6
UUCGAGUACAUGUAAACCAAA	80.8 ± 5.2	75.9 ± 18	65.1 ± 6.6	77.2 ± 15
UUCGAUAACAUGUAAACCAAA	93.7 ± 11	79.5 ± 19	101 ± 16	105 ± 18
UUCGAUCACAUGUAAACCAAA	92.3 ± 9.9	70.5 ± 4.3	65.1 ± 17	92.7 ± 14
UUCGAUGACAUGUAAACCAAA	90 ± 8.7	68.4 ± 10	82.5 ± 3	99.9 ± 27
UUCGAUUACAUGUAAACCAAA	96.8 ± 12	81.6 ± 15	77.9 ± 16	108 ± 19
UUCGCAAACAUGUAAACCAAA	89.5 ± 9.1	85.3 ± 24	101 ± 3.9	104 ± 8.4
UUCGCACACAUGUAAACCAAA	86 ± 4.2	89 ± 14	108 ± 23	73.3 ± 14
UUCGCAGACAUGUAAACCAAA	87.9 ± 14	75.9 ± 15	74.1 ± 6.3	91.3 ± 13
UUCGCAUACAUGUAAACCAAA	82.5 ± 4.6	90.8 ± 25	87.3 ± 8.3	92.2 ± 24
UUCGCCAACAUGUAAACCAAA	101 ± 13	86 ± 19	82.8 ± 12	76.4 ± 29
UUCGCCCACAUGUAAACCAAA	71.3 ± 3.9	67.6 ± 6.5	91.8 ± 1.2	75.6 ± 19
UUCGCCGACAUGUAAACCAAA	95.8 ± 6.6	90.4 ± 22	101 ± 2.9	91.1 ± 14
UUCGCCUACAUGUAAACCAAA	82.3 ± 9.7	81.3 ± 20	101 ± 14	40.6 ± 8.7
UUCGCGAACAUGUAAACCAAA	96.1 ± 11	88.2 ± 4.6	99.7 ± 12	112 ± 21
UUCGCGCACAUGUAAACCAAA	63.4 ± 12	77.4 ± 8.7	70.6 ± 4.7	47.5 ± 4
UUCGCGGACAUGUAAACCAAA	93.5 ± 13	90.2 ± 5.8	81.9 ± 7.3	108 ± 13
UUCGCGUACAUGUAAACCAAA	90.3 ± 7.4	68.6 ± 4.7	73.7 ± 10	67.5 ± 8.2
UUCGCUAACAUGUAAACCAAA	89.9 ± 9.8	77.4 ± 14	104 ± 2	107 ± 15
UUCGCUCACAUGUAAACCAAA	61.6 ± 10	66 ± 4	77.6 ± 17	62.2 ± 17
UUCGCUGACAUGUAAACCAAA	93.6 ± 15	78.9 ± 7.1	76.9 ± 15	68.4 ± 18
UUCGCUUACAUGUAAACCAAA	90.2 ± 16	69.1 ± 11	65.6 ± 8.9	74.4 ± 11
